Source: publication PMC12136788
Some of the results follow.

B1: chr20:1470740:1471132:-|three_prime_utr|ENSG00000196209|control|control|control (ssRNA)
RNA: GGGAGUUCUACAGUCCGACGAUCUCAGUUCUUGUCUGCUUGGAAGAAAGAUUUCAGCCAAGAGACACACAGCAAAGGUGAAGUAGCAGAGUUUAUUGAAGAAAGAUAAAGUACGUUCCUAGAAAGGAGUGGGCUGACCUGGCUCAACAGAGGAUUGAGCAUCA
B2: chr11:20048915:20049016:+|CDS|ENSG00000166833|unk|FALSE|bound_elsewhere (ssRNA)
RNA: GGGAGUUCUACAGUCCGACGAUCGAGCAGUGGGAGCAGCAGUCCUCUCUACAGCAAGAAUGUGGACCUCAACCAGUCUCCGCUAGCCUCCAGCCCCAGCUCAGCCCACUCGGCCCCUUCCAACAGCCUCACCUGGGGCACCAACAACAGAGGAUUGAGCAUCA
B3: chr15:22866942:22867043:+|3pUTR|ENSG00000140157|msi1|FALSE|unique (ssRNA)
RNA: GGGAGUUCUACAGUCCGACGAUCUAAAGAUUUCACUAAUUUGGACCAAGAAAUUACUUUUCUUGUAUUUAAACAAACAAUGGUAGCUCACUAAAAUGACCUCAGCACAUGACGAUUUCUAUUAACAUUUUAUUGUUGUAGAAGCAACAGAGGAUUGAGCAUCA
B4: ENSG00000214517:stop:overlap|stop_codon|ENSG00000214517|stop_codon|NA|stop_codon (ssRNA)
RNA: GGGAGUUCUACAGUCCGACGAUCUGAUCCGGCACAGGUUUGCAGAACCCAUCGGUGGAUUCCAGUGUGUGUUUCCUGGCUGUUAGUGACCUGCUGUCCACCCCUCCUCAACAUCGAGCUCUGUUGUAAAUACGUCGCACCAGACAACAGAGGAUUGAGCAUCA
B5: chr12:49796586:49796721:-|CDS|ENSG00000167566|msi1|total|mutant (ssRNA)
RNA: GGGAGUUCUACAGUCCGACGAUCGAGGCCCACAGGCCAGGCUUCGGUGCUACCUCAGAGGGCCAGGGGCCCCUCCCCUUCCUCCGCAUGUUCAUGGGUGCUGGGGAUGCCCCACUGGGCUCUCGGCCUGGCCACCCCCAUUCCCAACAGAGGAUUGAGCAUCA
B6: chr1:214663888:214664008:+|3pUTR|ENSG00000117724|msi1|total|mutant (ssRNA)
RNA: GGGAGUUCUACAGUCCGACGAUCAGGAGAAAACAAUUCCUCCGAAGUCUUAAAUAUAUUGUACUCUUCCGAUCUCCCAUGUGCCGGUAUUGAAAAAGUUUGGAAGCACUGAUCACCUGUCCGCAUUGCCAUUCCUCUACUGCACAACAGAGGAUUGAGCAUCA
B7: ENSG00000052841:stop:overlap|stop_codon|ENSG00000052841|stop_codon|NA|stop_codon (ssRNA)
RNA: GGGAGUUCUACAGUCCGACGAUCAGAACCGAAUCCAGACCAUCCAGUGUCACUUAAUGCUGAAGAAGGGACGGCGCUCUCCUUAGUGCACUUCUUCCUUCUCUCUUUCUCUUUACUCAUGCUCUAAAAAAAAAGAAUAAGAAACAACAGAGGAUUGAGCAUCA
B8: chr2:240467638:240467855:+|3pUTR|ENSG00000063660|msi1|total|mutant (ssRNA)
RNA: GGGAGUUCUACAGUCCGACGAUCGGACGGAGGUCCCCGGUUGCUGGUCAGGUCCCCAUGGCUUGUUCUCUGGAACCUGACUUCCGAUGUUUUGGGAUCAGGAGCCCCCAACACAGGCAAGUCCACCCCAUAAUAACCCUGCCACAACAGAGGAUUGAGCAUCA
B9: chr4:75812186:75812332:+|CDS|ENSG00000138768|unk|FALSE|unique (ssRNA)
RNA: GGGAGUUCUACAGUCCGACGAUCAGAGCAGCUGGAUUCAUCUAAUAGUACCAUUGCCAUUUUACAAACUGAGAAAGACAAACUAGAGUUGGAAAUUACAGAUUCUAAAAAAGAACAAGAUGAUCUCUUGGUGCUCUUGGCCGACAACAGAGGAUUGAGCAUCA
B10: chr7:92612324:92612425:-|3pUTR|ENSG00000105810|msi1|FALSE|bound_elsewhere (ssRNA)
RNA: GGGAGUUCUACAGUCCGACGAUCAUCCAACACAAGCAGUCUUGCCGUUAGGGCAUUUUGAAGCAGAUAGUAGAGUAAGAACUUAGUGACUACAGCUUAUUCUUCUGUAACAUAUGGUUUCAAACAUCUUUGCCAAAAGCUAAGCAACAGAGGAUUGAGCAUCA
B11: ENSG00000070961:be:win_2051|CDS|ENSG00000070961|bound_else_gene|NA|bound_elsewhere_windowed (ssRNA)
RNA: GGGAGUUCUACAGUCCGACGAUCAUCCUGUGAGACCUGAGGUGCCAGAUGCAAUUAAAAAGUGUCAGAGGGCUGGAAUUACUGUGCGGAUGGUCACUGGUGAUAAUAUUAAUACUGCUCGGGCCAUUGCUACCAAAUGUGGUACAACAGAGGAUUGAGCAUCA
B12: chr11:35619468:35619569:+|CDS|ENSG00000179431|unk|FALSE|unique (ssRNA)
RNA: GGGAGUUCUACAGUCCGACGAUCCCCCCUCCGGGAUGCCGGGGGUGAGCUGGCCAACCUCAGCCAGGCGGAGCUGGUGGACCUAGUACAAUGGACCGACUUAAUCCUUUUCGACUACCUGACGGCCAACUUCGACCGGCUCGUCAACAGAGGAUUGAGCAUCA
B13: chr9:93565116:93565217:+|3pUTR|ENSG00000048828|unk|total|mutant (ssRNA)
RNA: GGGAGUUCUACAGUCCGACGAUCAUAUACAAUACAUCAUACAUACUUUACAAGCAAGUUAAAUGGAGAUAAAGUUGAAAUCACCGAAGAUGCAAAUGACCUUUCAAAAUCAACACAAUGUGUUCUGAAACUUUCGUGACUAAUCAACAGAGGAUUGAGCAUCA
B14: ENSG00000070961:be:win_6351|3pUTR|ENSG00000070961|bound_else_gene|NA|bound_elsewhere_windowed (ssRNA)
RNA: GGGAGUUCUACAGUCCGACGAUCCAGAUGUCAGUUUUGAACCAAGAAUUGGUGAUUUGUUUAUAAGAAAAAAACUGGCUUCAUUUCUGUGAAAUUGCUCUUUGAAAAUUUCUUUUUACACGUGUAAGCCAACUGAGAUACCGUCAACAGAGGAUUGAGCAUCA

biological target: MSI1 full-length (mouse, UniProt Q61474 1-362); experiment: nsRBNS (natural sequence RNA bind-n-seq); RBNS binding buffer (assumed for nsRBNS): 25 mM Tris pH 7.5, 150 mM KCl, 3 mM MgCl2, 0.01% Triton X-100, 500 ug/ml BSA, 20 U/ml SUPERase-In, 4 C; UNK is unkempt and MSI1 is Musashi-1; names of the RNAs are library labels; protein concentration not given here; high values mean tight binding
Sequence of UniProt Q61474 (Q61474 whole entry): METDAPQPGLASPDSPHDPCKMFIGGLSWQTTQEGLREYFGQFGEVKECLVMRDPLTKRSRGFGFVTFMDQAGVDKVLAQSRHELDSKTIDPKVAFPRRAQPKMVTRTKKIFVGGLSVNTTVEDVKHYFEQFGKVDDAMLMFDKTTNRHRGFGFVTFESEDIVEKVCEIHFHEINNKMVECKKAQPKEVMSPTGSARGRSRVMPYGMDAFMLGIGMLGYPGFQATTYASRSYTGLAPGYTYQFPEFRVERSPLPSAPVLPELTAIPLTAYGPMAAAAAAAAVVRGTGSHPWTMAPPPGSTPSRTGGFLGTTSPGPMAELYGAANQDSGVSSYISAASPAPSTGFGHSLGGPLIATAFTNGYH

Binder | binding signal [enrichment R]
B1 | 0.631
B2 | 0.631
B3 | 0.998
B4 | 0.383
B5 | 0.321
B6 | 0.406
B7 | 0.61
B8 | 0.376
B9 | 0.957
B10 | 2.88
B11 | 0.429
B12 | 0.37
B13 | 0.485
B14 | 0.312
